The text below walks through data of paper PMC7819943, “Rice protein-binding microarrays: a tool to detect cis-acting elements near promoter regions in rice”.

Some of the results follow.

The test has as its target T1, OsWOX13 (Oryza sativa, UniProt Q5QMM3 1-267).
T1 sequence: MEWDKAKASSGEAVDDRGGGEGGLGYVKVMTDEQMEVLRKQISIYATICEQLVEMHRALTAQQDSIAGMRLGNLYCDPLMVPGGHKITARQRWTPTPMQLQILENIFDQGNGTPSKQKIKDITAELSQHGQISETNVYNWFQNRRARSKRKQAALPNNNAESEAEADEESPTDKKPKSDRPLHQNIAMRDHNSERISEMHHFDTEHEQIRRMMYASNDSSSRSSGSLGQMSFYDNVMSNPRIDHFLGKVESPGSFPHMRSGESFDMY
Description: protein-binding microarray (RPBM); PBS, 2% BSA, 51.3 ng/ul salmon testes DNA, 50 uM zinc acetate, 200 nM TF, 25 C, 1 h; high values mean tight binding. Conditions: protein: recombinant; tags: N-terminal polyhistidine and DsRed monomer fusion (pET32a); label: CyDye5-dUTP incorporated in the synthesized complementary strand; 3' TTTTT single-stranded linker to array surface; dsDNA, one strand shown. In a few lines:
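Using Ni–NTA, transcription factors fused N-terminally to polyhistidine and DsRed were purified after expression in E. coli BL21-CodonPlus. These were incubated at 200 nM with a blocked, double-stranded custom Agilent array for 1 h at 25 °C in a buffer containing 50 µM zinc acetate, and the array was washed. The binding signal is per-feature fluorescence intensity (arbitrary units) on an Axon 4000B scanner.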
As to “TTGAATTTCAAATTGAATTTACTACAAACTAGGAAAATATCGGAGTCACCTAGTGCAG”, the binding signal was 5200 fluorescence intensity (a.u.).
To “GGTATCTGCATTAATTAGTAATCACTGCTATGTACTAACTCGGAGTCACCTAGTGCAG” belongs 16100 fluorescence intensity (a.u.); to “AAAATTTTGGTTGAAATTGAAACAGTGTGATGAAAAGGTTCGGAGTCACCTAGTGCAG”, 4000 fluorescence intensity (a.u.).
For the sequence “AGCCTAATTAATTCGTCATTAGCATATGTGGGTTATTATACGGAGTCACCTAGTGCAG”, the binding signal is 27800 fluorescence intensity (a.u.).
On to “AATCCAATTGATAATCAACTATATATATATATTTGCATCTCGGAGTCACCTAGTGCAG”, for which the binding signal was 23500 fluorescence intensity (a.u.).
To “TGCCTTTTAAATTAGACACAGTGAGACCAAGCAGTAGTACCGGAGTCACCTAGTGCAG” belongs 4250 fluorescence intensity (a.u.); to “TGAAATTGAGGGGTACGATATATGCGTGTGTGTGGCAACGCGGAGTCACCTAGTGCAG”, 5800 fluorescence intensity (a.u.).
Take “ACTTTAACAATGCCAATTTATTTTGGTACTATAACTGATTCGGAGTCACCTAGTGCAG”: the binding signal is 10600 fluorescence intensity (a.u.).
As for “CATACTAATTGAATAGAACGAATCGTCCAGCTAAATTGCTCGGAGTCACCTAGTGCAG”, the binding signal is 37200 fluorescence intensity (a.u.).
The figure for “GACACGTATGATTTGTGTGGTAGTACATAGCACGCACGCACGGAGTCACCTAGTGCAG” is 4130 fluorescence intensity (a.u.).
The figure for “AGCTAATCAATCGCTTACGTCCCACCGCGACTCGTGTGAACGGAGTCACCTAGTGCAG” is 16400 fluorescence intensity (a.u.); for “GGACAGAGAATTTGAGCTAATTGGACATGATTTTGGCCAACGGAGTCACCTAGTGCAG” it is 8150 fluorescence intensity (a.u.); for “CACCATTCATTCAATCTAGTTATTATCTGCTGGGTACTCTCGGAGTCACCTAGTGCAG” it is 11800 fluorescence intensity (a.u.).
To “ACCCTTGATTTACTTGATAATTTGTTATATGTCCCCATCCCGGAGTCACCTAGTGCAG” belongs 49800 fluorescence intensity (a.u.); to “GCTATCTTTAATCTATTGGTTAATTATTGGCCATCAGTTCCGGAGTCACCTAGTGCAG”, 5840 fluorescence intensity (a.u.); to “CACCATAGATTAAATTAACAATAATATAATCACCACCAGACGGAGTCACCTAGTGCAG”, 18700 fluorescence intensity (a.u.).
Consider “GTTAATTTAATTGAAATTTAAATTTAAATCAATCTGCATTCGGAGTCACCTAGTGCAG”, for which the binding signal is 57600 fluorescence intensity (a.u.).
The figure for “CCATCATCAATTTTAAAGTTTAAACACCATGTTTAGGGTTCGGAGTCACCTAGTGCAG” is 3900 fluorescence intensity (a.u.).
Take “CTTAATTATCGTACCAAGGCTGTTTATTTGTTTTCTAAATCGGAGTCACCTAGTGCAG”: the binding signal was 21800 fluorescence intensity (a.u.).
Turning to “TACTAGATTACAATATTTTAGACAGATGCAGTAACTTCCCCGGAGTCACCTAGTGCAG”, the binding signal was 14300 fluorescence intensity (a.u.).
In the case of “GTGCGTGATGATTAAGGCATGAAAATCTTAAACAACTATTCGGAGTCACCTAGTGCAG”, the binding signal was 3200 fluorescence intensity (a.u.).
To “TTTAATAAAACTAATTTGACGTTGTAAATATTAGTACTATCGGAGTCACCTAGTGCAG” belongs 4620 fluorescence intensity (a.u.).
With “CATTAAGAGTGATTGAATCTTGTTCTAAACATTAACTTTTCGGAGTCACCTAGTGCAG”, the binding signal is 26300 fluorescence intensity (a.u.).
The figure for “TATATATATATATATATATATATCTTGAAAACGTGATGTGCGGAGTCACCTAGTGCAG” is 6240 fluorescence intensity (a.u.); for “AGATGACGAGTTGATGAGACCGTCATGTTTGACCTGGTATCGGAGTCACCTAGTGCAG” it is 14000 fluorescence intensity (a.u.); for “GCCGTCAAGATCATGATTGGGAGGACGTCGATTAATAAATCGGAGTCACCTAGTGCAG” it is 15300 fluorescence intensity (a.u.).
The figure for “CATGTTAATTTTCTACTACAGCTTAGGTTGATGCTATGTTCGGAGTCACCTAGTGCAG” is 9040 fluorescence intensity (a.u.); for “TGCTTCAATCATCATTGCATAAATGTGCATTACAGTGAATCGGAGTCACCTAGTGCAG” it is 19400 fluorescence intensity (a.u.).
Consider “AAAATTAGCTTCAATCAAGGTAACCAAACACGCCAGAGCTCGGAGTCACCTAGTGCAG”, for which the binding signal was 47100 fluorescence intensity (a.u.).
Regarding “TACTAAATTGACTATGGACGATTTAGAGCTCGTAGTTGGCCGGAGTCACCTAGTGCAG”, the binding signal is 53600 fluorescence intensity (a.u.).
To “TGTCTAATTATAGAACTTCTTATATTTTAAGACGAATGGACGGAGTCACCTAGTGCAG” belongs 14300 fluorescence intensity (a.u.).
Consider “ATTAAAAGAATTGCTGATTGTATTGCCATGTAGGACCAAACGGAGTCACCTAGTGCAG”, for which the binding signal was 5540 fluorescence intensity (a.u.).
As to “AATTGGACTGATGATAGAAACAAGTGACTGGTAAGCTGATCGGAGTCACCTAGTGCAG”, the binding signal is 9880 fluorescence intensity (a.u.).
To “GGACAATGTAATTAATAATTTAATTGGCTTGAGTTTGTTTCGGAGTCACCTAGTGCAG” belongs 25800 fluorescence intensity (a.u.); to “TCAAATAAATTGGTTAGAGAACATAGTAAAGAATATGACACGGAGTCACCTAGTGCAG”, 12900 fluorescence intensity (a.u.); to “CTAAACAGTTTGAAGTGGTTTACTGAATGGAAATTCTGTTCGGAGTCACCTAGTGCAG”, 6830 fluorescence intensity (a.u.).
Take “ATACGAAATAGAAATGATCATTTATTTACCTAAATGCCACCGGAGTCACCTAGTGCAG”: the binding signal was 3310 fluorescence intensity (a.u.).
For “ATGCTAATTACGCGCGTCTTCCCACCTTCGCATGGTGGGCCGGAGTCACCTAGTGCAG”, the binding signal was 24800 fluorescence intensity (a.u.).
To “ATCATAATTAGCTCGTTCGTTGTCGACATAACTATATCGCCGGAGTCACCTAGTGCAG” belongs 33500 fluorescence intensity (a.u.); to “AAAGATTATGCTTTATTCTCATAATCAAGAAATAGGATAACGGAGTCACCTAGTGCAG”, 3520 fluorescence intensity (a.u.); to “CCGTAACATAATTTCAGCGGTGGTACGTAGTACGGACGACCGGAGTCACCTAGTGCAG”, 11100 fluorescence intensity (a.u.).
Regarding “TCTCACATTATAATCAGGGCTAATTCTCTAGATGGAACCACGGAGTCACCTAGTGCAG”, the binding signal is 4500 fluorescence intensity (a.u.).
